# From the supplement of paper PMC9513381
# B1: B1086 (protein)
# chain 1: QVQLVQSGAEVKKPGASVKVSCKASGYTFTSNGISWVRQAPGQGLEWMGWISVYNGNTNYAQKLQGRLTMTTDTSTSTAYMELRSLRSDDTAVYYCARAVWSSGDYGGDLFDIWGQGTMITVSS
# chain 2: DIQMTQSPSSLSASVGDRVTITCQASQDISNYLNWYQQKPGKAPKLLIYDASNLESGVSSRFSGSGSGTDFTFTISSLQPEDIATYYCQQYQNLPLTFGGGTKVEIK
# B2: B1087 (protein)
# chain 1: QVQLVESGGGVVQPGRSLRLSCAASGFTFSNHAMHWVRQAPGKGLEWVASITYDGSNKYYAGSVKGRFTIARDNSKNTLHLQMNSLRAEDTAVYYCARDGGSGYDYSFDGLDVWGQGTTVTVSS
# chain 2: DIVMTQTPLSSPVTLGQPASISCRSSQSLVHRDGNTYLSWLQQRPGQPPRLLIYKISNRFSGVPDRFSGSGTATDFTLKISRVQAEDVGVYFCMQATHPGITFGQGTRLEIK
# B3: B1088 (protein)
# chain 1: EVQLVQSGAEVKKPGESLKISCKGSGYSFTNYWIAWVRQMPGKGLEWMGIIYPGDSDTRYSPSFQGQITFSADKSISTAYLQWSSLKASDTAMYYCARLYPQSYYYDSSGYYYFDYWGQGTLVTVSS
# chain 2: SYVLTQPPSVSVSPGQTARITCSGDALPKPYAYWYQQKPGQAPVLVIYKDSERPSGIPERFSGSSSGTTVTLTISGVQAEDEADYYCQSADITGTYVVFGGGTKLTVL
# B4: B1090 (protein)
# chain 1: EVQLVESGGGLVQPGGSLRLSCAASGFTFSTYSMNWVRQAPGKGLEWLSYISSGSSTIKYADSVKGRLTISRDNAKNSLFLQMNSLRDEDTAVYYCARVQIRSGYYYYYGMDVWGQGTTVTVSS
# chain 2: QSVLTQPRSVSGSPGQSVTISCTGTSSDIGSYDYVSWYQQHPGTAPKLMIYDVSKRPSGVPDRFSGSKSGNTASLTISGLQTEDESDYYCCSYAGIWLFGGGTKLTVL
# B5: B1092 (protein)
# chain 1: EVQLVESGGGLVQPGRSLRLSCAASGFTFHDYAIHWVRQVPGKGLEWVSGISWNSDDLGYADSVRGRFTISRDNAKNSVYLQMNSLRAEDTAIYYCAKDHILGAGTGWEKRENNFDPWGQGTLVIVSS
# chain 2: DIQMTQSPSSLSASVGDRVTITCRASQSIRNYLNWYQQKPGKAPKLLIYGASTLQSGVPARFSGSGSGTDFTLTISSLQPEDLATYYCQQTYEIPPWTFGQGTKVEIK
# B6: B1093 (protein)
# chain 1: EVQLVESGGGLVQPGRSLRLSCAASGFTFHDYAIHWVRQVPGKGLEWVSGISWNSDDLGYADSVRGRFTISRDNAKNSVYLQMNSLRAEDTAIYYCAKDHILGAGTGWEKRENNFDPWGQGTLVIVSS
# chain 2: DIQMTQSPSTLSASVGDRVTITCRASQSVSSWLAWYQQKPGKAPKLLIYKASNLQSGVPSRFSGSGSGTEFTLTISSLQPDDFATYYCQQYNTYPWMFGQGTKVEIK
# B7: B1094 (protein)
# chain 1: EVQLVESGGGLIQPGGSLRLSCTPSGFTVSGIYWGWVRQAPGKGLEWVSVLYDGGAIYYADAVKGRFTISRDNSKNTVHLQMNSLRVEDTAVYYCARRSLYVGDFGDLLYPIIWGQGTTVTVSS
# chain 2: DIVMTQSPLSLPVTPGEPASMSCRSSQSLLHGNGYNYLDWYLQKPGQSPQLLIYFGSYRASGVPDRFSGSGSGTDFTLKISRVEAEDVGVYFCMQALRTPFTFGPGTEVDIK
# Target: SARS-CoV-2 Wuhan-Hu-1 spike pseudovirus
# Assay: pseudovirus neutralization IC50; higher = weaker neutralization
# Experimental: (§1)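 Single-round luciferase reporter pseudovirus mixed with antibody dilutions and put on 293T-ACE2 cells for 48 h; signal relative to no-antibody wells, four-parameter fit.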
row,Binder,pseudovirus neutralization IC50 [µg/mL]
1,B1,0.053
2,B2,0.0022
3,B3,0.171
4,B4,> 1
5,B5,> 1
6,B6,0.00175
7,B7,0.00262

# Target: SARS-CoV-2 Wuhan-Hu-1 spike pseudovirus
# Assay: pseudovirus neutralization IC90; higher = weaker neutralization
# Experimental: as §1
row,Binder,pseudovirus neutralization IC90 [µg/mL]
1,B1,> 1
2,B2,0.0128
3,B3,> 1
4,B4,> 1
5,B5,> 1
6,B6,0.0111
7,B7,0.0161

# Target: SARS-CoV-2 Delta (B.1.617.2) spike RBD
# Assay: ELISA binding EC50; higher = weaker binding; ELISA of recombinant human antibody on coated antigen, from 10 µg/ml in fourfold dilutions; four-parameter fit.
row,Binder,ELISA binding EC50 [µg/mL]
1,B1,0.00373
2,B2,0.00383
3,B3,0.149
4,B4,0.0538
5,B5,> 1
6,B6,0.018
7,B7,0.0628

# Target: SARS-CoV-2 Omicron BA.1 spike protein
# Assay: as above
row,Binder,ELISA binding EC50 [µg/mL]
1,B1,0.036
2,B2,> 1
3,B3,0.101
4,B4,0.0328
5,B5,> 1
6,B6,> 1
7,B7,0.0549

# Target: SARS-CoV-2 Wuhan-Hu-1 spike receptor-binding domain
# Assay: as above
row,Binder,ELISA binding EC50 [µg/mL]
1,B1,0.00219
2,B2,0.00212
3,B3,0.00289
4,B4,0.00028
5,B5,0.654
6,B6,0.0022
7,B7,0.00168

# Recombinant human monoclonal antibodies (heavy:light variable regions). ELISA EC50 on the named antigen, from 10 µg/ml down; IC50 / IC90 against spike pseudovirus on 293T-ACE2 cells, 48 h; lower = stronger. Calls: IC50 above 1,000 ng/ml = non-neutralizing; EC50 above 1,000 ng/ml = non-binder. The source prints 1000 for neutralization that was not reached; it is given as >1000 ng/ml. Only binders of the Wuhan-Hu-1 domain have neutralization values.
